Some of the results follow.
tested on: HepG2; experiment: cytotoxicity call (relative viability < 0.9); conditions: 10 µM

Structure (SMILES) | cytotoxicity call
C[C@@H]1CCCCO[C@H](CN(C)C(=O)Nc2ccc(C(F)(F)F)cc2)[C@@H](C)CN([C@H](C)CO)C(=O)c2cc(NS(=O)(=O)c3ccc(Cl)cc3)ccc2O1 | inactive
NC(N)=Nc1nc(CSCCC(N)=NS(N)(=O)=O)cs1 | inactive
O=C(C1=C(O)C(=O)N(c2nccs2)[C@H]1c1cccc(Oc2ccccc2)c1)c1ccc2c(c1)OCCO2 | inactive
Cc1c(-c2cnccn2)ssc1=S | inactive
CO[C@@H]1CN(C)C(=O)c2ccc(NS(C)(=O)=O)cc2OC[C@H](C)N(S(C)(=O)=O)C[C@H]1C | inactive
CO[C@H]1CN(C(=O)c2ccnnc2)[C@H]2COC[C@@H]12 | inactive
CC(C)NC(=O)Nc1ccc2c(c1)C(=O)N([C@@H](C)CO)C[C@@H](C)[C@H](CN(C)Cc1ccc3c(c1)OCO3)O2 | inactive
C[C@H]1CCCCO[C@H](CN(C)Cc2ccc3c(c2)OCO3)[C@@H](C)CN([C@@H](C)CO)C(=O)c2cc(NS(=O)(=O)c3ccc(F)cc3)ccc2O1 | inactive
N[C@H](C(=O)O)c1cc(O)cc(O)c1 | inactive
Cc1cccc(NC(=O)CN2C(=O)CNC2=O)c1 | inactive
O=C(C[C@H]1CC[C@H](NS(=O)(=O)c2ccc(F)cc2)[C@@H](CO)O1)NCc1ccc(Cl)c(Cl)c1 | inactive
O=C(C[C@H]1CC[C@H]2[C@@H](COC[C@@H](O)CN2S(=O)(=O)c2ccc(Cl)cc2)O1)N[C@H]1CCN(Cc2ccccc2)C1 | inactive
O=C(Cc1ccccc1)NCCN1CCOCC1 | inactive
O=C(C[C@H]1CC[C@H](NS(=O)(=O)c2ccccc2F)[C@H](CO)O1)NCCCN1CCOCC1 | inactive
